No constants are given. Whether binding was seen depends on the method and setting. Binding seen in cells or lysates may run through a third protein. Some binding calls cover weakened binding; strength is not graded here. Each block holds one substance with its values, some of them ahead of it.
Legend:
[1] = molecular target: T1, Golgi protein 73 (GP73) (human (endogenous in MHCC-97H)) (UniProt Q8NBJ4); assay: co-IP; lysates of HepG2 and MHCC-97H cells (GP73 overexpressed or silenced; with or without BFA 2.5 μg/ml for 12 h), 1x IP lysis buffer, antibodies with protein A/G magnetic beads, 6 h at 4 °C, immunoblotting
T1 sequence: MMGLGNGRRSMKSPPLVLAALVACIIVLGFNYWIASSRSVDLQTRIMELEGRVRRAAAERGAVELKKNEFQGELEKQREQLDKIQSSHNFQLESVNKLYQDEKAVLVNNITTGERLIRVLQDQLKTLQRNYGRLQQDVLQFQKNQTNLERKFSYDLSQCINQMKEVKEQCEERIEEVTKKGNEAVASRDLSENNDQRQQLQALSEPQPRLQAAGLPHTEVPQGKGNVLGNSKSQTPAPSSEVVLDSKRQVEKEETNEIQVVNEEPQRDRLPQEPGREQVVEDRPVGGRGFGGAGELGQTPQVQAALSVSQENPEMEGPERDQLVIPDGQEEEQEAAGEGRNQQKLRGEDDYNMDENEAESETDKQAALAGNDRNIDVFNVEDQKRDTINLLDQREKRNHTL

Chains of the proteins cited; added tags and fusions are not shown. Residues count along the entry.
UniProt P35968, residues 20-1356: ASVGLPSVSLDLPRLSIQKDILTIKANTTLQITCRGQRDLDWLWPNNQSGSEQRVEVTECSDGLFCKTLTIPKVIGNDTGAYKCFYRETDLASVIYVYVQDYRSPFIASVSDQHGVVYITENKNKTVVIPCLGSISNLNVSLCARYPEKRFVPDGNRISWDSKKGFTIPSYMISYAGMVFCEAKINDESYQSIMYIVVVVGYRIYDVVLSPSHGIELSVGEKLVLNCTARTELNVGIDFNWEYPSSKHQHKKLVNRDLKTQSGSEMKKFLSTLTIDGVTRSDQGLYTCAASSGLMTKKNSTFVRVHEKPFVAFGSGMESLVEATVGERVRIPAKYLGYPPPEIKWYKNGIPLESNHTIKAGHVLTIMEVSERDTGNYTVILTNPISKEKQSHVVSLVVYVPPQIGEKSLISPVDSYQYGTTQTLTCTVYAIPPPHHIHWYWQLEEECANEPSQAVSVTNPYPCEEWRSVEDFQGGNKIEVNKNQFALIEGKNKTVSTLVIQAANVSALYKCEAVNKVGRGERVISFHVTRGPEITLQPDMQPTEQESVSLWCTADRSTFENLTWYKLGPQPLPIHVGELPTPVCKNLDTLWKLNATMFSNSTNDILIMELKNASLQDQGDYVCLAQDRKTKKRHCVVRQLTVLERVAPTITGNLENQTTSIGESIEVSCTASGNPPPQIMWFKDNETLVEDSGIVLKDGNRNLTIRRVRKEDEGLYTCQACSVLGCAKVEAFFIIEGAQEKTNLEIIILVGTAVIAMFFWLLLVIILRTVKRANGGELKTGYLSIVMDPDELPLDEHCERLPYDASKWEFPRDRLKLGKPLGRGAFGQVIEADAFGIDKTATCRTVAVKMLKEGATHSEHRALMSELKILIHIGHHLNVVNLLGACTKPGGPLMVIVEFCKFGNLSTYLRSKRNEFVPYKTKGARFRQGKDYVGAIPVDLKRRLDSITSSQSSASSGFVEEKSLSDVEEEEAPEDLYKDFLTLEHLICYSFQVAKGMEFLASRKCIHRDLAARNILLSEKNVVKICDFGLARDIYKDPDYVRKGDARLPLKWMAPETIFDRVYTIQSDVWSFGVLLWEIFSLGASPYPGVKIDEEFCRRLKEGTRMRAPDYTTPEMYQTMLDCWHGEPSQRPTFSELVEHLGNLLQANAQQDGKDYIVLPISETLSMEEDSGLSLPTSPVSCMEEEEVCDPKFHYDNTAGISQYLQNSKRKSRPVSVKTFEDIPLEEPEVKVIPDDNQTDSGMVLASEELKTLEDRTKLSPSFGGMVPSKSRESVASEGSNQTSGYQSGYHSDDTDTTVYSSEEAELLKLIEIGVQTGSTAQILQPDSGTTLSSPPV
UniProt Q9ULT8: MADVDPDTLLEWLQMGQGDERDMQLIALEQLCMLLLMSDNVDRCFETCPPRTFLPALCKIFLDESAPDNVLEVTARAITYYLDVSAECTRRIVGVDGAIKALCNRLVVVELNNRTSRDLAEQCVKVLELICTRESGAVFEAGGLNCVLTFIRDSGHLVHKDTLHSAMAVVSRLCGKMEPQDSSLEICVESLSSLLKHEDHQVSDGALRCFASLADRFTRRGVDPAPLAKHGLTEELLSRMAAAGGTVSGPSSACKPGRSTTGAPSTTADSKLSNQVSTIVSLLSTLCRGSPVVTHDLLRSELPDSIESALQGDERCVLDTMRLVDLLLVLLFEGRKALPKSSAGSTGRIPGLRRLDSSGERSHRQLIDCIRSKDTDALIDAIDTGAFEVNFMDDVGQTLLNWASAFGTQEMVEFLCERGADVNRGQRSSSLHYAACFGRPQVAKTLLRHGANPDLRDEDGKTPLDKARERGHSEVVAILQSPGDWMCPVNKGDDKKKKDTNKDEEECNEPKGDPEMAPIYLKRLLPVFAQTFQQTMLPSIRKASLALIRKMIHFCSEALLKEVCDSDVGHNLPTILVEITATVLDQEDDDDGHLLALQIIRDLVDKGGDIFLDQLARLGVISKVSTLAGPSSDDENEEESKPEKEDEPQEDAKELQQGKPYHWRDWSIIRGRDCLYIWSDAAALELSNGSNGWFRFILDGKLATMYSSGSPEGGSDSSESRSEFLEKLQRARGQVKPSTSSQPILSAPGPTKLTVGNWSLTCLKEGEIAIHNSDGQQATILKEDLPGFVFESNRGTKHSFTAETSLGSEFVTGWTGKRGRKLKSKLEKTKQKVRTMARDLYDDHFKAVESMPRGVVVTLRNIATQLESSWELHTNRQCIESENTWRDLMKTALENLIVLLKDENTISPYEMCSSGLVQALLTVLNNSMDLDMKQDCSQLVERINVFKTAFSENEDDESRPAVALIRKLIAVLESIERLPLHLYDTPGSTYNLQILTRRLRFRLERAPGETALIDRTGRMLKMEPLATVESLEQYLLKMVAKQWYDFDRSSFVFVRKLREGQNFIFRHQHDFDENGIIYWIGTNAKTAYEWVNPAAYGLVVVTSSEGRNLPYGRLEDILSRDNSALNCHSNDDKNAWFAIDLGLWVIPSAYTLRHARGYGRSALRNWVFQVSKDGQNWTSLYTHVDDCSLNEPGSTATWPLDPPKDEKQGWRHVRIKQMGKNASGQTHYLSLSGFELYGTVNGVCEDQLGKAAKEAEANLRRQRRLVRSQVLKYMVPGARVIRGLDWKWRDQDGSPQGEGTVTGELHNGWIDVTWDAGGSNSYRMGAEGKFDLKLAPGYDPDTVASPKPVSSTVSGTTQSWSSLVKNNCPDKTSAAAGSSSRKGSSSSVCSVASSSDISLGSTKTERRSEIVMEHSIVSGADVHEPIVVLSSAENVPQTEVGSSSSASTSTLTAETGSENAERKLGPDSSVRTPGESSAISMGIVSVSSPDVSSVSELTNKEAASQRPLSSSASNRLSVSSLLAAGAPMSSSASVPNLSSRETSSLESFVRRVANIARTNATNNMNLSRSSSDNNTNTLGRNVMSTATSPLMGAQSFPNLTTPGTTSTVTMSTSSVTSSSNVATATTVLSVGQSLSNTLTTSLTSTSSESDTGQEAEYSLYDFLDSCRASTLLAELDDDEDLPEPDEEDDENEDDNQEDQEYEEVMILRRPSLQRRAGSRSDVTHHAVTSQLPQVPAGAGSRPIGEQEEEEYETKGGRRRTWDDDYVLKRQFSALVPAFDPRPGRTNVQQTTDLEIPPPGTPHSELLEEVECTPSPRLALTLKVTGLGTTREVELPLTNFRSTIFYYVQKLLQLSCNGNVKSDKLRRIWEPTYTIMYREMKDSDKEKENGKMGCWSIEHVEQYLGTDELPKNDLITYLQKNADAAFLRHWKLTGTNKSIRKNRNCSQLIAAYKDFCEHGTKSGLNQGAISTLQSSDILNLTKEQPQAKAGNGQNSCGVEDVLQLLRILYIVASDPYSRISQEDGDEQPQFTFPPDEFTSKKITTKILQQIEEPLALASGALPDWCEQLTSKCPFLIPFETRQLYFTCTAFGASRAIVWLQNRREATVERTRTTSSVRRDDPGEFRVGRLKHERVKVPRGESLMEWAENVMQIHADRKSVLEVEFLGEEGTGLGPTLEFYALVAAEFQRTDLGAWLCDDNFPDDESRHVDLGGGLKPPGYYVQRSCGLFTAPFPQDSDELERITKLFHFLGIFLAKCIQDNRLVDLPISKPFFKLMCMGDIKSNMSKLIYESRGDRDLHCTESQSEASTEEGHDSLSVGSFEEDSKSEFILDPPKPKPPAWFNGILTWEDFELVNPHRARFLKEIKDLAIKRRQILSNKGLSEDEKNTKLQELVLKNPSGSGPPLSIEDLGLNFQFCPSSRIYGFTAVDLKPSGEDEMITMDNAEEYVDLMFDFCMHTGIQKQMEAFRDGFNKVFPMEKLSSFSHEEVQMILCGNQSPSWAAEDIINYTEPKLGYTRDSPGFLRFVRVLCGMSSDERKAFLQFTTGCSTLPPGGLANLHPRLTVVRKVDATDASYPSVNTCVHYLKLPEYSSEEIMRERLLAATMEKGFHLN
UniProt Q9GZT9: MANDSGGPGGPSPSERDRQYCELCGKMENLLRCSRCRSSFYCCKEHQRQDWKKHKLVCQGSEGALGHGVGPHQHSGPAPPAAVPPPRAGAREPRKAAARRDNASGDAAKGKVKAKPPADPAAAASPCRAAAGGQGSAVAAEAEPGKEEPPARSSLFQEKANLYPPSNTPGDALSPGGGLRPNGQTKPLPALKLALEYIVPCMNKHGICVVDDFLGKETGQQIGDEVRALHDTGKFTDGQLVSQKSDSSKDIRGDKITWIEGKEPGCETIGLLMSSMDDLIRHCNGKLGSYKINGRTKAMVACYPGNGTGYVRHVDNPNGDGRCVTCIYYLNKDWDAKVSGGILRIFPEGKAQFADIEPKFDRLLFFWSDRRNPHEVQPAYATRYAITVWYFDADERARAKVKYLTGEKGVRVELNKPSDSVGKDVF
UniProt P62993: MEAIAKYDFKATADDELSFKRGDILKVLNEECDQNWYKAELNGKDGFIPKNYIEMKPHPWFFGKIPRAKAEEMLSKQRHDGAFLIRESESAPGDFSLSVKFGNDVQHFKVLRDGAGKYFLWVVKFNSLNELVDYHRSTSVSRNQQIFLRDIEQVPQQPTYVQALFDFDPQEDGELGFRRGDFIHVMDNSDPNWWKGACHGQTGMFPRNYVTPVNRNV
UniProt Q16665: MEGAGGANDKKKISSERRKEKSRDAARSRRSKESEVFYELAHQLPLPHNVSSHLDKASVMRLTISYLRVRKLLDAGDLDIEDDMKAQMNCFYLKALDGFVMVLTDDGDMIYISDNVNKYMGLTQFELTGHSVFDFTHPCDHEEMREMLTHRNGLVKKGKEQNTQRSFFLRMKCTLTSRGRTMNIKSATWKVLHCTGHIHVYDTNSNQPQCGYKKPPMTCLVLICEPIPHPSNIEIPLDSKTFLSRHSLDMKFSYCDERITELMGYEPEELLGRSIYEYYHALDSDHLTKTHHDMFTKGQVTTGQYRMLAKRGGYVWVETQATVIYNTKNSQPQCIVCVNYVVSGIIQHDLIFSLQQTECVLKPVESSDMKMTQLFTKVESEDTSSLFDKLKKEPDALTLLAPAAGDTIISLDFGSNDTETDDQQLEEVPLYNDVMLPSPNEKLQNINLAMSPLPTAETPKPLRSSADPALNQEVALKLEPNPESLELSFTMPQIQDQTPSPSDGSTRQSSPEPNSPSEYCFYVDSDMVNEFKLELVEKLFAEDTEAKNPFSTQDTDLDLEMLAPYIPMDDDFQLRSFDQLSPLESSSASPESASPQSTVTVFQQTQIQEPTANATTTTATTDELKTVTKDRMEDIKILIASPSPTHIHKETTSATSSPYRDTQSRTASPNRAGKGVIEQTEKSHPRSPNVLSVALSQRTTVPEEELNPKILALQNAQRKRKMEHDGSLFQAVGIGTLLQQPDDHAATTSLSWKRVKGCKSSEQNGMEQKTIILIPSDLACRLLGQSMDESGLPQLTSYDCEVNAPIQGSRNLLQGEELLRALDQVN

[2] = molecular target: VEGFR2 (human (endogenous in HUVEC)) (UniProt P35968); assay: co-IP; lysates of HUVECs (treated with exosomes from HepG2 or MHCC-97H cells for 48 h, with GRB2 siRNA, recombinant VEGF, or stably expressing GP73-Δ1-55), 1x IP lysis buffer, antibodies with protein A/G magnetic beads, 6 h at 4 °C, immunoblotting
[3] = molecular target: HECTD1 (human (endogenous in HUVEC)) (UniProt Q9ULT8); assay: as above
[4] = molecular target: T2, exosomal GP73 (human (from HepG2 and MHCC-97H cells)) (UniProt Q8NBJ4); assay: as above
T2 sequence: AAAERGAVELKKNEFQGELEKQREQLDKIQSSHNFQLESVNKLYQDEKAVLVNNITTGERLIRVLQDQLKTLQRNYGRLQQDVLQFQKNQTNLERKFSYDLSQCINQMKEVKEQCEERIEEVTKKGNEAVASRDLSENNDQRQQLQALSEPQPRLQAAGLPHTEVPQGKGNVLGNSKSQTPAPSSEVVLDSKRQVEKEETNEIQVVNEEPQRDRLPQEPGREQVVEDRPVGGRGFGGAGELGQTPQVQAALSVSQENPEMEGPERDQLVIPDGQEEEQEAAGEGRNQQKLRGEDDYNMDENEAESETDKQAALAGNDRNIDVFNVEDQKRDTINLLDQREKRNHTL

binding [1]: binds
Substance: prolyl hydroxylase-2 (PHD-2) (from UniProt Q9GZT9 1-426) (enzyme)

binding [2]: binds | binding [3]: binds
Substance: growth factor receptor-bound protein 2 (GRB2) (from UniProt P62993 1-217)

binding [4]: binds
Substance: HECTD1 (from UniProt Q9ULT8 1-2610) (enzyme)

binding [1]: no binding
Substance: hypoxia-induced factor-1α (HIF-1α) (from UniProt Q16665 1-826)

From publication PMC11251733
